Experimental data: publication PMC7819943, “Rice protein-binding microarrays: a tool to detect cis-acting elements near promoter regions in rice”
The list shows a part of the results.

target: T1, OsWOX13 (Oryza sativa, UniProt Q5QMM3 1-267); assay: protein-binding microarray (RPBM); PBS, 2% BSA, 51.3 ng/ul salmon testes DNA, 50 uM zinc acetate, 200 nM TF, 25 C, 1 h; high values mean tight binding; conditions: protein: recombinant; tags: N-terminal polyhistidine and DsRed monomer fusion (pET32a); label: CyDye5-dUTP incorporated in the synthesized complementary strand; 3' TTTTT single-stranded linker to array surface; dsDNA, one strand shown
T1 sequence: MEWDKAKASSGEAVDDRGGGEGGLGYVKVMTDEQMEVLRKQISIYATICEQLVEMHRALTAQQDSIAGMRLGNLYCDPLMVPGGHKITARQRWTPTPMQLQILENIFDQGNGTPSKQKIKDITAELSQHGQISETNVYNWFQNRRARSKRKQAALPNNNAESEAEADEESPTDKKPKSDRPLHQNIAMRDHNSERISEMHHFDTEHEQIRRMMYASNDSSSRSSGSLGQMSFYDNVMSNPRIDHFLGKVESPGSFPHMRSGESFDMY
Summary of the method: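 For the binding signal, per-feature fluorescence intensity was read in arbitrary units on an Axon 4000B scanner. Before scanning, a 2% BSA-blocked custom Agilent array made double-stranded with Cy5-dUTP was washed after 1 h at 25 °C with 200 nM protein and 50 µM zinc acetate. The proteins were Ni–NTA-purified transcription factors with N-terminal polyhistidine and DsRed fusions, expressed in E. coli BL21-CodonPlus.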

Q: Which binding signal does the source give for “ATGGATAGATAGATAGATAGATAGATAGGATGAATGGAAGCGGAGTCACCTAGTGCAG” here?
A: 44700 fluorescence intensity (a.u.)

Q: How did the binding signal turn out when “ATTTGACAGAAGAAAACTGTCGCAAGTTTTCTATCAATTCCGGAGTCACCTAGTGCAG” was run?
A: 11100 fluorescence intensity (a.u.)

Q: For “GGTAATTAAGCTAAGCGCCGAGACGCGCCGCCCCAGATATCGGAGTCACCTAGTGCAG”, which binding signal is on record?
A: 4600 fluorescence intensity (a.u.)

Q: Which binding signal does the source give for “AACCAAATATAAATTGAGTAGCAATTTCACAACTCATCATCGGAGTCACCTAGTGCAG” here?
A: 5080 fluorescence intensity (a.u.)

Q: “TGGATTTTAAATTAAGTAAATTGCACCAGCGGTCCTTAAACGGAGTCACCTAGTGCAG” was tested. Which binding signal did it give?
A: 6480 fluorescence intensity (a.u.)

Q: Which binding signal does the source give for “CTGCTCCTGAGGGGTAGGGAGGGAGGGGAAGGAGCACGTTCGGAGTCACCTAGTGCAG” here?
A: 3610 fluorescence intensity (a.u.)

Q: “TTAACCGCTTAATTATAACCGCCTCTCGGATTAGCGCGGCCGGAGTCACCTAGTGCAG” was tested. Which binding signal did it give?
A: 10500 fluorescence intensity (a.u.)

Q: “TAGTAATAGATAGAGAAGCATAAATACCTCCATTATTTGTCGGAGTCACCTAGTGCAG” was tested. Which binding signal did it give?
A: 12000 fluorescence intensity (a.u.)

Q: With “GATGTGATTGAAAGTTTGTGTGTGTATGACAGTTTGATGTCGGAGTCACCTAGTGCAG” as the sequence, how does the binding signal read?
A: 61700 fluorescence intensity (a.u.)

Q: “GATTTGGGGATTTGGGGTTTGATTTAGGATGTGCATGCCACGGAGTCACCTAGTGCAG” was tested. Which binding signal did it give?
A: 7910 fluorescence intensity (a.u.)

Q: Which binding signal does the source give for “AGTTGTCATCTGCAATCACTTGATGAGCTTGATTTGTAAGCGGAGTCACCTAGTGCAG” here?
A: 6720 fluorescence intensity (a.u.)

Q: With “TGGATAGATTAGGAGGTGACTACTCCAAAACTGTAGGAGTCGGAGTCACCTAGTGCAG” as the sequence, how does the binding signal read?
A: 17800 fluorescence intensity (a.u.)

Q: With “GTACATAATTATGGAGGAGGGGAATATACCGGAGGGTAAGCGGAGTCACCTAGTGCAG” as the sequence, how does the binding signal read?
A: 14100 fluorescence intensity (a.u.)

Q: For “AACTTAATTGTCTTTCTAGTTTTGTCCCGAGTCAAACATTCGGAGTCACCTAGTGCAG”, which binding signal is on record?
A: 37100 fluorescence intensity (a.u.)

Q: How did the binding signal turn out when “CTGGGATTGAACGGATTGGGTTATGGACTGATATGGGCCGCGGAGTCACCTAGTGCAG” was run?
A: 33700 fluorescence intensity (a.u.)

Q: With “ATTATTAATTTACAAATACAATTTACAGAAAATTTGAAATCGGAGTCACCTAGTGCAG” as the sequence, how does the binding signal read?
A: 8210 fluorescence intensity (a.u.)

Q: How did the binding signal turn out when “ACCTAAATTAGACAGTTTTGTATAGTTTAGGGGTAAAGATCGGAGTCACCTAGTGCAG” was run?
A: 34800 fluorescence intensity (a.u.)

Q: How did the binding signal turn out when “AGCCTAATTAATCCATAATTAACATATGTTTACTGTAGCACGGAGTCACCTAGTGCAG” was run?
A: 53000 fluorescence intensity (a.u.)

Q: For “CTTGATTTTCTTCTCGGCACAAGAAATATTATTATTGCAACGGAGTCACCTAGTGCAG”, which binding signal is on record?
A: 15000 fluorescence intensity (a.u.)

Q: For “TCCTTTATTTAATTTTCCCAACGCGTGAAGTACAGTGCCCCGGAGTCACCTAGTGCAG”, which binding signal is on record?
A: 4870 fluorescence intensity (a.u.)

Q: With “TGGACACGACTAGATTGACGCGTGGGTTTCTCCACACATACGGAGTCACCTAGTGCAG” as the sequence, how does the binding signal read?
A: 15100 fluorescence intensity (a.u.)

Q: Which binding signal does the source give for “AGCATTAAATTATATTTCTATATGAACTCTAACCTCTATTCGGAGTCACCTAGTGCAG” here?
A: 3370 fluorescence intensity (a.u.)

Q: Which binding signal does the source give for “TGTGGCTAAATTTATCAATTGAATGGGCTAGAGGCACGCTCGGAGTCACCTAGTGCAG” here?
A: 17400 fluorescence intensity (a.u.)

Q: “AAAGTTAATTTCCATCAGTTTCGGACATAAAACCGGCCTTCGGAGTCACCTAGTGCAG” was tested. Which binding signal did it give?
A: 19200 fluorescence intensity (a.u.)

Q: Which binding signal does the source give for “AAATAATTTTCACATACCATAAGTAAGATCCGGTGCTAGCCGGAGTCACCTAGTGCAG” here?
A: 3800 fluorescence intensity (a.u.)

Q: For “TAGCAAATAATTAATTAATCACGTGCTAATGGACTGCTTCCGGAGTCACCTAGTGCAG”, which binding signal is on record?
A: 37900 fluorescence intensity (a.u.)

Q: With “CTTATTGACTTATTGTTTTACGAAAACACGGATACATTTTCGGAGTCACCTAGTGCAG” as the sequence, how does the binding signal read?
A: 3150 fluorescence intensity (a.u.)

Q: How did the binding signal turn out when “AAGCCTAATTAATCATCCATTAGCAAATATTTACTGTAGTCGGAGTCACCTAGTGCAG” was run?
A: 20600 fluorescence intensity (a.u.)

Q: Which binding signal does the source give for “GATGTATTGATGGATTCTATGGATGTATGGAATGATGTTGCGGAGTCACCTAGTGCAG” here?
A: 6390 fluorescence intensity (a.u.)

Q: “ATCAAATTAAAATTAAGTTTCAACATTTATATTTTAGCTACGGAGTCACCTAGTGCAG” was tested. Which binding signal did it give?
A: 13500 fluorescence intensity (a.u.)

Q: With “AGCCGATTAGTTATTGACTGATTTATTCCGGTTTTGATGTCGGAGTCACCTAGTGCAG” as the sequence, how does the binding signal read?
A: 45400 fluorescence intensity (a.u.)

Q: “GAGAAAATCATTAAGATGATAGGTTGTTGGATTGAAATATCGGAGTCACCTAGTGCAG” was tested. Which binding signal did it give?
A: 7050 fluorescence intensity (a.u.)

Q: With “AATAGACTATAAATTTATAGTAATCGGAGTCCGAACGAAGCGGAGTCACCTAGTGCAG” as the sequence, how does the binding signal read?
A: 7120 fluorescence intensity (a.u.)

Q: “ACGCGATTGATCTATCTCCCCTCGTCGCGCCACGACGCGACGGAGTCACCTAGTGCAG” was tested. Which binding signal did it give?
A: 5630 fluorescence intensity (a.u.)

Q: How did the binding signal turn out when “TCTGATCAGTCCATTGATTACAGAAACCATATGGAATCTGCGGAGTCACCTAGTGCAG” was run?
A: 23200 fluorescence intensity (a.u.)

Q: With “GAAACTAACTGCCATTCTGCGACAACATGGACGTACAGCTCGGAGTCACCTAGTGCAG” as the sequence, how does the binding signal read?
A: 6040 fluorescence intensity (a.u.)

Q: For “GGGGAATAATTGTATATATCGTACAAAGCTTACGGAATGTCGGAGTCACCTAGTGCAG”, which binding signal is on record?
A: 8630 fluorescence intensity (a.u.)

Q: With “AAATGACATGATAGGTTAATATGTAATATATCACTTCACACGGAGTCACCTAGTGCAG” as the sequence, how does the binding signal read?
A: 7620 fluorescence intensity (a.u.)

Q: With “GATTGATTTGATTGATTGCTTGATTGGTTAATTGGTTGATCGGAGTCACCTAGTGCAG” as the sequence, how does the binding signal read?
A: 51600 fluorescence intensity (a.u.)

Q: Which binding signal does the source give for “CTGATGATGAGAAATACCACCAATTTGAGAGGGATTTATGCGGAGTCACCTAGTGCAG” here?
A: 4660 fluorescence intensity (a.u.)

Q: How did the binding signal turn out when “CAATAATTGATTCTACATATCCACATAATCACTAATTAACCGGAGTCACCTAGTGCAG” was run?
A: 44100 fluorescence intensity (a.u.)

Q: How did the binding signal turn out when “ACATAAATAGATATCAATATGAATCGCTGAACTTTTCGTACGGAGTCACCTAGTGCAG” was run?
A: 16400 fluorescence intensity (a.u.)

Q: “TCATTAATTTCATGTCTCCTCTAATTTCCTCCTGAACCCTCGGAGTCACCTAGTGCAG” was tested. Which binding signal did it give?
A: 12400 fluorescence intensity (a.u.)

Q: “AAACTTGATGGAATTCTTTAAATGTTCGATTGCTGGAGAGCGGAGTCACCTAGTGCAG” was tested. Which binding signal did it give?
A: 16700 fluorescence intensity (a.u.)

Q: With “CTTGACAGTTCGTGAAACTCGTCCTAAAATCCAAAACCGGCGGAGTCACCTAGTGCAG” as the sequence, how does the binding signal read?
A: 5220 fluorescence intensity (a.u.)

Q: With “AGTAATAATTTTATCAATTTATTTGTTATATATGCTGTTACGGAGTCACCTAGTGCAG” as the sequence, how does the binding signal read?
A: 45600 fluorescence intensity (a.u.)

Q: Which binding signal does the source give for “TTATTATTTGTATTAATTTATTAGGATTTCTCTCATGCTTCGGAGTCACCTAGTGCAG” here?
A: 5850 fluorescence intensity (a.u.)

Q: Which binding signal does the source give for “GCTAATCTATGTTATGTCACGTATGTAAAAGGAAGCTTGACGGAGTCACCTAGTGCAG” here?
A: 3690 fluorescence intensity (a.u.)

Q: “GTAATTTTGGTATAATTTAATAACTAAATTTGGTACCTCACGGAGTCACCTAGTGCAG” was tested. Which binding signal did it give?
A: 12100 fluorescence intensity (a.u.)

Q: Which binding signal does the source give for “TTGCCAATAAATGACTAACTAGGTTTTGGTTACGGAAGTTCGGAGTCACCTAGTGCAG” here?
A: 5240 fluorescence intensity (a.u.)

Q: “GCTAATATGAATATATGATCATCAATCAAGATCAAGCCGTCGGAGTCACCTAGTGCAG” was tested. Which binding signal did it give?
A: 28700 fluorescence intensity (a.u.)

Q: With “AATCATTTTCAGTTACAAATTAAATGGTGTTTCAATAGCTCGGAGTCACCTAGTGCAG” as the sequence, how does the binding signal read?
A: 6090 fluorescence intensity (a.u.)

Q: For “GATAATAATATAATAATTGATCTAATAATGCAGAAATCAACGGAGTCACCTAGTGCAG”, which binding signal is on record?
A: 20400 fluorescence intensity (a.u.)

Q: For “CAATTAATATATGTGTTCTATGATTAAACAAAGTGTGCAACGGAGTCACCTAGTGCAG”, which binding signal is on record?
A: 5510 fluorescence intensity (a.u.)
